Assay results from patent publication US9453030B2, “Oxidative degradation products of atrovastatin calcium” (LEK Pharmaceuticals d.d., priority 2004, dated 2016).

Tests used:
[1] = Content of oxidative degradation products in atorvastatin calcium as prepared in air or in a nitrogen/inert atmosphere (HPLC, 250 nm)
[2] = Content of oxidative degradation products in atorvastatin calcium stored in air or nitrogen for 24 months at room temperature (HPLC, 250 nm); conditions: stored in air, room temperature (25° C.)
[3] = Example 5: whole preparation under inert atmosphere, HPLC 250 nm
[4] = prepared in air, response factor 1.00
[5] = prepared in nitrogen, response factor 1.00

- content of ATV-cycloFP [1, 3]: below 0.04%
- content of ATV-cycloIP [1, 3]: below 0.04%
- content of ATV-epoxy dion [1, 3]: below 0.04%
- content of ATV-epoxy furan [1, 3]: below 0.04%
- Content of ATV-cycloIP in % ([1]; prepared in air, response factor 0.41): 0.215%
- Content of ATV-cycloFP in % ([1]; prepared in air, response factor 0.48): 0.193%
- Content of ATV-epoxy furane in % ([1]; prepared in air, response factor 0.72): 0.093%
- Content of ATV-cycloFP in % [1, 4]: 0.093%
- Content of ATV-cycloIP in % [1, 4]: 0.088%
- Content of ATV-epoxy dion in % [1, 4]: 0.069%
- Content of ATV-epoxy furane in % [1, 4]: 0.066%
- Content of ATV-epoxy dion in % ([1]; prepared in air, response factor 1,20): 0.058%
- Content of ATV-cycloIP in % ([1]; prepared in nitrogen, response factor 0.41): 0.032%
- Content of ATV-cycloFP in % ([1]; prepared in nitrogen, response factor 0.48): 0.038%
- Content of ATV-epoxy furane in % ([1]; prepared in nitrogen, response factor 0.72): 0.016%
- Content of ATV-cycloFP in % [1, 5]: 0.018%
- Content of ATV-cycloIP in % [1, 5]: 0.013%
- Content of ATV-epoxy dion in % [1, 5]: 0.016%
- Content of ATV-epoxy furane in % [1, 5]: 0.011%
- Content of ATV-epoxy dion in % ([1]; prepared in nitrogen, response factor 1,20): 0.013%
- Content of ATV-cycloIP in % [2]: 0.856%
- Content of ATV-epoxy dion in % [2]: 0.741%
SMILES: CC(C)c1c(C(=O)Nc2ccccc2)c(-c2ccccc2)c(-c2ccc(F)cc2)n1CC[C@@H](O)C[C@@H](O)CC(=O)[O-].CC(C)c1c(C(=O)Nc2ccccc2)c(-c2ccccc2)c(-c2ccc(F)cc2)n1CC[C@@H](O)C[C@@H](O)CC(=O)[O-].[Ca+2] (relative stereo) [atorvastatin calcium, hemicalcium salt of (R—(R*,R*))-2-(4-fluorophenyl)-β,δ-dihydroxy-5-(1-methylethyl)-3-phenyl-4((phenylamino)carbonyl)-1H-pyrol-1-heptanoic acid]
